Laboratory results published in the BET-seq Pho4 binding data (Le et al. 2018).
This is one part of the list. The energies were worked out here from pooled read counts, against the library average; single values are noisy.

Each sequence was assayed against T1, Pho4 (S. cerevisiae) (UniProt P07270) (assay: relative binding free energy (BET-seq); higher = weaker binding). Settings: reference: library average.
T1 sequence: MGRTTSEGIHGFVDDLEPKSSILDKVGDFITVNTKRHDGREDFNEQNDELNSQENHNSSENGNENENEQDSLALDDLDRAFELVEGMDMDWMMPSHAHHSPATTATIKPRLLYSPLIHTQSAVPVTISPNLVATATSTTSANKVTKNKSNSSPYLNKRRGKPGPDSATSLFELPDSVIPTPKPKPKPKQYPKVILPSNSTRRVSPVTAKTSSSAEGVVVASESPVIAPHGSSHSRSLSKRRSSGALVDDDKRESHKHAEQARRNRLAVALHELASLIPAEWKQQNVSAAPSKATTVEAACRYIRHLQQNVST

| Sequence | relative binding free energy |
| --- | --- |
| TGTACCACGTGTAAGT | -0.01 kcal/mol |
| AGTGGCACGTGGAGTC | 0.02 kcal/mol |
| GGTTTCACGTGTAGTG | 0.24 kcal/mol |
| TGAAGCACGTGGATGA | -0.13 kcal/mol |
| TTGAGCACGTGGAATT | 0.04 kcal/mol |
| TCAGACACGTGGGTTT | -0.04 kcal/mol |
| TATGGCACGTGTTCTA | -0.18 kcal/mol |
| GTGGTCACGTGTCTTT | 0.1 kcal/mol |
| GGGGTCACGTGGCGGC | 0.01 kcal/mol |
| GCGTGCACGTGTCGTG | -0.1 kcal/mol |
| TTGGGCACGTGTATTG | -0.02 kcal/mol |
| ATGTCCACGTGGTGGA | 0.07 kcal/mol |
| TACGTCACGTGGTATG | -0.07 kcal/mol |
| TACTTCACGTGCAGGG | 0.27 kcal/mol |
| GTTTTCACGTGCGGAA | 0.32 kcal/mol |
| TCTAGCACGTGTTTTT | 0 kcal/mol |
| ACGGGCACGTGGGGCT | -0.19 kcal/mol |
| GGCGGCACGTGCGAGG | -0.23 kcal/mol |
| TTCGTCACGTGGTACG | 0.05 kcal/mol |
| ATTTTCACGTGAAGAG | 0.4 kcal/mol |
| TTTGTCACGTGTTACT | 0.12 kcal/mol |
| TAGAGCACGTGCTGAT | 0.01 kcal/mol |
| ACGGGCACGTGGGTCG | -0.31 kcal/mol |

| Sequence | relative binding free energy |
| --- | --- |
| ATGTTCACGTGCGTTG | 0.18 kcal/mol |
| CTCATCACGTGGTGGA | 0.2 kcal/mol |
| AAGTGCACGTGATGCG | 0.03 kcal/mol |
| TCTGCCACGTGGTGGA | -0.01 kcal/mol |
| TTGTGCACGTGGTCGT | -0.05 kcal/mol |
| AGGTTCACGTGGAATG | 0.33 kcal/mol |
| CGGTTCACGTGTAGCG | 0.23 kcal/mol |
| GTGAGCACGTGCGGGT | -0.01 kcal/mol |
| ATTTGCACGTGAGATG | 0.2 kcal/mol |
| CTTTTCACGTGGGTTC | 0.28 kcal/mol |
| AAGCGCACGTGAAGGT | 0.21 kcal/mol |
| TTAGCCACGTGGCGTT | -0.2 kcal/mol |
| CTTGGCACGTGGAATG | 0 kcal/mol |
| ATAGACACGTGAGAGG | 0.26 kcal/mol |
| TTTAGCACGTGTTATT | -0.05 kcal/mol |
| GGCGACACGTGCAGGT | 0.16 kcal/mol |
| GGTGGCACGTGTCAGG | -0.01 kcal/mol |
| TGGAGCACGTGTGTTT | -0.06 kcal/mol |
| CTTGTCACGTGAATTT | 0.33 kcal/mol |
| TGGTACACGTGCGGGA | 0.08 kcal/mol |
| TAGGGCACGTGTTACT | -0.07 kcal/mol |
| TGGAGCACGTGTTGCG | -0.19 kcal/mol |
| GTGAACACGTGGCGGG | -0.1 kcal/mol |

| Sequence | relative binding free energy |
| --- | --- |
| TGAGGCACGTGACGGC | 0 kcal/mol |
| ACGAGCACGTGGGTTT | -0.14 kcal/mol |
| ATTAACACGTGAATGG | 0.26 kcal/mol |
| TGAGGCACGTGATCTT | -0.1 kcal/mol |
| TAGTACACGTGTATGT | 0.07 kcal/mol |
| TTGGGCACGTGGAGAA | -0.13 kcal/mol |
| TTGGTCACGTGTTCGG | 0.19 kcal/mol |
| GAGCGCACGTGAAAGG | 0.32 kcal/mol |
| GATGGCACGTGAGGAT | 0.33 kcal/mol |
| GCAAGCACGTGAGTGG | 0.29 kcal/mol |
| GTATTCACGTGGGTCG | 0.22 kcal/mol |
| GATGGCACGTGGAAGG | 0.07 kcal/mol |
| ATGGTCACGTGAGTTA | 0.45 kcal/mol |
| TAATACACGTGGGGCT | -0.09 kcal/mol |
| AGTTACACGTGAGTAG | 0.3 kcal/mol |
| AACGGCACGTGTGTAT | -0.02 kcal/mol |
| TAGGCCACGTGTGTAA | -0.05 kcal/mol |
| CGTTCCACGTGATGGT | 0.1 kcal/mol |
| AAGTTCACGTGTGGCA | 0.33 kcal/mol |
| TAAGGCACGTGTGGTA | -0.04 kcal/mol |
| ATTAGCACGTGGTAAT | -0.18 kcal/mol |
| GGGGTCACGTGTCGAT | 0.21 kcal/mol |
| AACTGCACGTGGCGTG | -0.09 kcal/mol |

| Sequence | relative binding free energy |
| --- | --- |
| AAGAGCACGTGGAGGA | -0.18 kcal/mol |
| GTGGACACGTGTAAGT | 0.17 kcal/mol |
| TAATTCACGTGAGAGG | 0.47 kcal/mol |
| CGATGCACGTGTGGGG | 0.03 kcal/mol |
| CCGTGCACGTGGATGG | 0.03 kcal/mol |
| AAATTCACGTGATTTT | 0.19 kcal/mol |
| ATTTACACGTGGGCGT | -0.04 kcal/mol |
| TGGTGCACGTGGAGAC | 0.12 kcal/mol |
| TCAAGCACGTGAGTGG | 0.14 kcal/mol |
| CTTTGCACGTGCTGGG | -0.1 kcal/mol |
| GTTAGCACGTGTTACG | -0.14 kcal/mol |
| AGGGACACGTGAGGGC | 0 kcal/mol |
| TTAGGCACGTGAGTCG | 0.06 kcal/mol |
| CGTTACACGTGAGTAG | 0.2 kcal/mol |
| TGGGGCACGTGAATAG | 0.21 kcal/mol |
| TAGCGCACGTGAGTGG | 0.05 kcal/mol |
| TTATGCACGTGCCTTT | -0.08 kcal/mol |
| TTGTTCACGTGCCGGT | 0.35 kcal/mol |
| CGTAGCACGTGTAATG | 0.1 kcal/mol |
| GGGTACACGTGGTGTA | -0.04 kcal/mol |
| AAGTACACGTGTTTGC | 0.13 kcal/mol |
| TGAGACACGTGAGTCG | 0.25 kcal/mol |
| ATTAGCACGTGGATTT | -0.04 kcal/mol |

| Sequence | relative binding free energy |
| --- | --- |
| TATTGCACGTGAGTGG | 0.15 kcal/mol |
| AGCGTCACGTGGATTA | 0.13 kcal/mol |
| TGTTTCACGTGGCAAG | 0.16 kcal/mol |
| CAGTTCACGTGGTGGT | 0.18 kcal/mol |
| TCATGCACGTGCTGGT | -0.06 kcal/mol |
| TTTGGCACGTGTTATA | -0.14 kcal/mol |
| GATTGCACGTGTTTCG | 0.23 kcal/mol |
| GGTGCCACGTGTGATG | 0.09 kcal/mol |
| GTTATCACGTGAAAAG | 0.41 kcal/mol |
| ATCGTCACGTGCTTTG | 0.23 kcal/mol |
| GTTGGCACGTGTACGT | 0.14 kcal/mol |
| ATGTCCACGTGAAGTG | 0.28 kcal/mol |
| GCGTTCACGTGATGTG | 0.35 kcal/mol |
| ATGTGCACGTGGGAAA | -0.13 kcal/mol |
| GATATCACGTGGGATT | 0.05 kcal/mol |
| AGTTTCACGTGTCATT | 0.27 kcal/mol |
| TAGTGCACGTGGACGT | 0.07 kcal/mol |
| CGGTACACGTGCTGTG | -0.01 kcal/mol |
| TGGTTCACGTGGGTCG | 0.22 kcal/mol |
| TTTCACACGTGGGCGT | -0.09 kcal/mol |
| CGAGTCACGTGTTTGG | 0.09 kcal/mol |
| GTTGGCACGTGAGCAT | 0.1 kcal/mol |
| GGAGTCACGTGTGTGG | 0.19 kcal/mol |
